Measured values reported in the supplement of paper PMC4967469.

Columns and labels:
Experiment in all cases: Viability of human cancer cell lines after 72 h of drug (GDSC screen)
Zibotentan = compound: COc1nc(C)cnc1NS(=O)(=O)c1cccnc1-c1ccc(-c2nnco2)cc1 [Zibotentan]; conditions: top dose 20 µM; top dose inferred
Procedure: (§1)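 Human cancer cell lines in 384-well plates, medium with 10% serum, drug for 72 h over a 256-fold dose range (nine 2-fold or five 4-fold steps up to the top dose). Adherent lines were fixed and stained with the nucleic acid dye Syto60, suspension lines read with resazurin; signal relative to control wells, capped at 0 and 100%. One two-parameter sigmoid per drug and line, fitted in a mixed model over all curves with the slope shared within a line.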

GSK269962A = compound: CCn1c(-c2nonc2N)nc2cnc(Oc3cccc(NC(=O)c4ccc(OCCN5CCOCC5)cc4)c3)cc21 [GSK269962A]; conditions: top dose inferred
Procedure: as §1

Cytarabine = compound: Nc1ccn([C@@H]2O[C@H](CO)[C@@H](O)[C@@H]2O)c(=O)n1 [Cytarabine]; conditions: top dose 2 µM
Procedure: as §1

KU-55933 = compound: O=c1cc(-c2cccc3c2Sc2ccccc2S3)oc(N2CCOCC2)c1 [KU-55933]; conditions: top dose 10 µM
Procedure: as §1

CHIR-99021 = compound: Cc1cnc(-c2cnc(NCCNc3ccc(C#N)cn3)nc2-c2ccc(Cl)cc2Cl)[nH]1 [CHIR-99021]
Procedure: as §1

ABT-869 = compound: Cc1ccc(F)c(NC(=O)Nc2ccc(-c3cccc4[nH]nc(N)c34)cc2)c1 [ABT-869]; conditions: top dose 1.024 µM; top dose inferred
Procedure: as §1

CMK = compound: Cc1ccc(-c2c(C(=O)CCl)n(CCCO)c3ncnc(N)c23)cc1 [CMK]; conditions: top dose 4 µM; top dose inferred
Procedure: as §1

MPS-1-IN-1 = compound: COc1cc(N2CCC(O)CC2)ccc1Nc1cc(Nc2ccccc2S(=O)(=O)C(C)C)c2cc[nH]c2n1 [MPS-1-IN-1]; conditions: top dose 20 µM; top dose inferred
Procedure: as §1

CP466722 = compound: COc1cc2ncnc(-n3nc(-c4ccccn4)nc3N)c2cc1OC [CP466722]; conditions: top dose 16 µM; top dose inferred
Procedure: as §1

QL-X-138 = compound: C=CC(=O)Nc1cc(-n2c(=O)ccc3cnc4ccc(-c5cn[nH]c5)cc4c32)ccc1C [QL-X-138]; conditions: top dose 10.24 µM; top dose inferred
Procedure: as §1

ABT-888 = compound: C[C@]1(c2nc3c(C(N)=O)cccc3[nH]2)CCCN1 [ABT-888]; conditions: top dose 5 µM; top dose inferred
Procedure: as §1

(5Z)-7-Oxozeaenol = compound: COc1cc(O)c2c(c1)/C=C/C[C@H](O)[C@H](O)C(=O)/C=C\C[C@H](C)OC2=O [(5Z)-7-Oxozeaenol]; conditions: top dose 10 µM; top dose inferred
Procedure: as §1

Thapsigargin = compound: C/C=C(/C)C(=O)O[C@H]1C(C)=C2[C@H]([C@@H]1OC(=O)CCCCCCC)[C@@](C)(OC(C)=O)C[C@H](OC(=O)CCC)[C@@]1(O)[C@H]2OC(=O)[C@@]1(C)O [Thapsigargin]; conditions: top dose 0.512 µM; top dose inferred
Procedure: as §1

[1] = top dose 2.5 µM, screen: GDSC drug entry 127
[2] = top dose 5 µM, screen: GDSC drug entry 1192
[3] = top dose 2.56 µM, screen: GDSC drug entry 154
[4] = top dose 10 µM, screen: GDSC drug entry 1241, top dose inferred

Cell Line	AUC (Zibotentan)	IC50 (Zibotentan)	AUC (GSK269962A; [1])	IC50 (GSK269962A; [1])	AUC (GSK269962A; [2])	IC50 (GSK269962A; [2])	AUC (Cytarabine)	IC50 (Cytarabine)	AUC (KU-55933)	IC50 (KU-55933)	AUC (CHIR-99021; [3])	IC50 (CHIR-99021; [3])	AUC (CHIR-99021; [4])	IC50 (CHIR-99021; [4])	AUC (ABT-869)	IC50 (ABT-869)	AUC (CMK)	IC50 (CMK)	AUC (MPS-1-IN-1)	IC50 (MPS-1-IN-1)	AUC (CP466722)	IC50 (CP466722)	AUC (QL-X-138)	IC50 (QL-X-138)	AUC (ABT-888)	IC50 (ABT-888)	AUC ((5Z)-7-Oxozeaenol)	IC50 ((5Z)-7-Oxozeaenol)	AUC (Thapsigargin)	IC50 (Thapsigargin)
D-247MG (glioma, adherent)	0.913	> 20000 nM	0.662	523 nM	0.887	> 5000 nM	0.723	686 nM	0.979	> 10000 nM	0.751	1130 nM	0.874	> 10000 nM	0.785	618 nM	0.93	> 4000 nM	0.925	> 20000 nM	0.724	5580 nM	0.829	9850 nM	0.966	> 5000 nM	0.661	2080 nM		
D-336MG (glioma, adherent)	0.975	> 20000 nM	0.693	643 nM	0.629	789 nM	0.743	774 nM	0.977	> 10000 nM	0.741	974 nM	0.935	> 10000 nM	0.962	> 1020 nM	0.947	> 4000 nM	0.928	> 20000 nM	0.801	10500 nM	0.576	1100 nM	0.981	> 5000 nM	0.649	1830 nM		
DOHH-2 (B-cell lymphoma, suspension)			0.844	1720 nM			0.828	1200 nM	0.977	> 10000 nM	0.986	> 2560 nM					0.671	738 nM							0.973	> 5000 nM			0.336	11.3 nM
EHEB (lymphoid neoplasm, suspension)					0.739	2110 nM	0.968	> 2000 nM	0.971	> 10000 nM	0.978	> 2560 nM	0.975	> 10000 nM			0.942	> 4000 nM							0.962	> 5000 nM	0.731	3900 nM	0.661	110 nM
EW-24 (Ewing sarcoma, semi-adherent)	0.992	> 20000 nM	0.968	> 2500 nM	0.91	> 5000 nM	0.969	> 2000 nM	0.974	> 10000 nM	0.992	> 2560 nM	0.991	> 10000 nM	0.993	> 1020 nM	0.993	> 4000 nM	0.974	> 20000 nM	0.973	> 16000 nM	0.992	> 10200 nM	0.986	> 5000 nM	0.964	> 10000 nM		
GA-10 (Burkitt lymphoma, suspension)			0.33	57.1 nM	0.932	> 5000 nM	0.917	> 2000 nM	0.932	> 10000 nM	0.874	1850 nM	0.916	> 10000 nM			0.81	1710 nM							0.991	> 5000 nM	0.755	2930 nM		
IM-9 (myeloma, suspension)			0.992	> 2500 nM	0.936	> 5000 nM	0.982	> 2000 nM	0.967	> 10000 nM	0.992	> 2560 nM	0.917	> 10000 nM			0.97	> 4000 nM							0.99	> 5000 nM	0.605	1160 nM	0.959	> 512 nM
LS-123 (large intestine, adherent)	0.978	> 20000 nM	0.945	> 2500 nM	0.908	> 5000 nM	0.979	> 2000 nM			0.98	> 2560 nM	0.975	> 10000 nM	0.96	> 1020 nM	0.895	> 4000 nM	0.931	> 20000 nM	0.821	13600 nM	0.614	1460 nM	0.973	> 5000 nM	0.634	1660 nM	0.34	9.88 nM
NB17 (neuroblastoma, adherent)	0.979	> 20000 nM	0.794	1350 nM			0.905	> 2000 nM	0.984	> 10000 nM	0.934	> 2560 nM			0.941	> 1020 nM	0.737	1330 nM	0.79	10400 nM	0.913	> 16000 nM	0.39	304 nM	0.982	> 5000 nM				
NCI-H716 (large intestine, suspension)	0.976	> 20000 nM	0.975	> 2500 nM	0.77	2390 nM	0.982	> 2000 nM			0.981	> 2560 nM	0.979	> 10000 nM	0.965	> 1020 nM	0.979	> 4000 nM	0.871	> 20000 nM	0.855	> 16000 nM	0.873	> 10200 nM	0.809	3470 nM	0.763	4500 nM	0.89	> 512 nM

By IC50 is meant the dose at which the fit gives 50% viability; fits outside the tested doses are given as limits. The AUC spans the tested range (256-fold, ending at the top dose) of the same fit; values near 1 show little effect. For some of these results: Any top dose called inferred was derived from the fitted curves, not read from the paper. For some of these results: Drugs with an entry number were screened twice under separate entries, and the two screens often disagree.
